{"source": "ChEMBL document CHEMBL4888484", "about": "“Replenishing the malaria drug discovery pipeline: Screening and hit evaluation of the MMV Hit Generation Library 1 (HGL1) against asexual blood stage Plasmodium falciparum ,using a nano luciferase reporter read-out” (2022)", "note": "Among all 150,000 compounds or so, about 540 (0.36%) showed an effect of 50% or more. This is one part of the list."}
{"test_system": "Plasmodium falciparum", "assay": "Primary screen in NF54 nanoGlo assay, in single point, at 2uM, 72h; a lower Z score goes with more inhibition", "assay_type": "functional, Erythrocyte", "details": "timepoint 72 hour", "units": {"% Inhibition": "%"}}
{"smiles": "Cc1ccnc(-c2noc(Cn3c(=O)c(C)cn(C)c3=O)n2)c1", "% Inhibition": 37, "Z score": -1.67}
{"smiles": "O=C(NCC1CCN(C(=O)c2cn[nH]c2)CC1)c1ccoc1", "% Inhibition": -3, "Z score": 0.39}
{"smiles": "CN(C[C@H]1CC(=O)N(C2CCCC2)C1)C(=O)Nc1ccc2ncsc2c1", "% Inhibition": 6, "Z score": -0.95}
{"smiles": "COCc1ccccc1CNCc1cnc(-c2ccccc2)s1", "% Inhibition": 2, "Z score": -0.23}
{"smiles": "NC(=O)C[C@H](NC(=O)COc1cccc2cccnc12)C1CCCCC1", "% Inhibition": 8, "Z score": -0.88}
{"smiles": "Cc1nc(C2CN(c3ncncc3Cl)C2)n[nH]1", "% Inhibition": -2, "Z score": 0.44}
{"smiles": "Cc1nc2cc(N3C[C@@H](C(=O)NCc4ccco4)CC3=O)ccc2o1", "% Inhibition": -10, "Z score": 2.02}
{"smiles": "O=C(c1cccs1)N(C[C@H]1CCCO1)c1nc(-c2cccc(C(F)(F)F)c2)cs1", "% Inhibition": -1, "Z score": 0.29}
{"smiles": "COc1ccc(NC(=O)c2cc(S(=O)(=O)N3CCOCC3)ccc2NC2CCCCC2)cc1", "% Inhibition": 0, "Z score": 0.01}
{"smiles": "O=C1CCc2cc(F)cc(NC(=O)NCc3csc(N4CCCC4)n3)c2N1", "% Inhibition": -2, "Z score": 0.25}
{"smiles": "Cc1nc(C)c(C(=O)N[C@H]2CCCc3sc(-c4ccc(F)cc4)nc32)o1", "% Inhibition": -9, "Z score": 1.4}
{"smiles": "O=C(NC[C@H]1C[C@@H]1C1CCC1)c1c[nH]nn1", "% Inhibition": -8, "Z score": 1.06}
{"smiles": "O=C(Cn1cccn1)N1CC(c2nc(-c3ncccn3)no2)C1", "% Inhibition": 24, "Z score": -0.93}
{"smiles": "Cc1cc(C)cc(-n2ccc(=O)c(-c3nc(-c4ccc(C)c(C)c4)no3)n2)c1", "% Inhibition": 3, "Z score": -0.45}
{"smiles": "O=c1c2cnn(-c3ccccc3)c2nnn1Cc1nnsc1Cl", "% Inhibition": 6, "Z score": -0.59}
{"smiles": "C[C@H]1C(=O)N2C[C@@H](N(C)C)C[C@H]2CN1C(=O)c1cc(F)ccc1Cl", "% Inhibition": -24, "Z score": 2.08}
{"smiles": "O=C(c1ccc(C#CC2(O)CCCCC2)cc1)N1CCN(c2ccccc2Cl)CC1", "% Inhibition": -12, "Z score": 2.2}
{"smiles": "Cc1ccc2[nH]c(N3CCN(C(=O)Nc4ccc5c(c4)OCO5)CC3)nc2c1", "% Inhibition": 4, "Z score": -0.63}
{"smiles": "CCn1ccc(C(=O)N[C@H]2COCC[C@@H]2OCc2ccccn2)cc1=O", "% Inhibition": -3, "Z score": 0.5}
{"smiles": "O=C(NCc1cccnc1N1CCOCC1)Nc1cn[nH]c1", "% Inhibition": -3, "Z score": 0.51}
{"smiles": "CC1Oc2ccc(NC(c3ccccc3)c3ncc[nH]3)cc2NC1=O", "note": "(centres undefined)", "% Inhibition": -13, "Z score": 1.3}
{"smiles": "O=C(NC1CCC2(CCCCC2)CC1)C1CC=CCC1C(=O)N1CCOCC1", "note": "(centres undefined)", "% Inhibition": -4, "Z score": 0.54}
{"smiles": "c1ccc(-c2nc(-c3ccc4c(c3)OCO4)cs2)cc1", "% Inhibition": -10, "Z score": 1.87}
{"smiles": "O=S(=O)(c1cc2c(s1)CCCC2)N1CCOCC1", "% Inhibition": -11, "Z score": 1.27}
{"smiles": "C[C@H]1CCOCCN1C(=O)c1ccc(F)c(Cl)c1F", "% Inhibition": -18, "Z score": 2.1}
{"smiles": "COc1ccnc(-c2c[nH]c3ccc(C)cc23)n1", "% Inhibition": 1, "Z score": -0.07}
{"smiles": "COC[C@H]1C[C@@H](NC(=O)c2ccc3c(c2)OCO3)[C@H](O)[C@@H]1O", "% Inhibition": -10, "Z score": 1.62}
{"smiles": "COc1cc(C(F)(F)F)ncc1NC(=O)NC1CCN(CC(C)C)CC1", "% Inhibition": -5, "Z score": 0.62}
{"smiles": "O=C(c1cccc(Cl)c1)[C@H]1CCCN(C(=O)Nc2ccc3c(c2)OCO3)C1", "% Inhibition": -17, "Z score": 2.6}
{"smiles": "COc1ccc(-c2noc(CCCC(=O)Nc3cccnc3)n2)cc1OC", "% Inhibition": -9, "Z score": 1.06}
{"smiles": "CCCn1nnnc1COC(=O)c1ccc2nccnc2c1", "% Inhibition": -18, "Z score": 2.94}
{"smiles": "CCCNC(=O)CN(C)c1nnc(N2CCCC2=O)s1", "% Inhibition": -5, "Z score": 1}
{"smiles": "Nc1ccnc(C(=O)N2CCO[C@H]3CCCC[C@@H]32)c1", "% Inhibition": -19, "Z score": 4.05}
{"smiles": "O=C1CCC(Cn2nnc(C3CC3)n2)CC1", "% Inhibition": -11, "Z score": 1.38}
{"smiles": "Cc1cc(C(=O)NC[C@@]23CCCC=C2N(C)C(=O)CC3)n(C)n1", "% Inhibition": -12, "Z score": 1.77}
{"smiles": "Cc1ccc(C(=O)Cc2nnn(-c3ccccc3)n2)cc1", "% Inhibition": 5, "Z score": -0.92}
{"smiles": "COc1nn(C)cc1NC(=O)NC1(C)C(C)(C)C1(C)C", "% Inhibition": 3, "Z score": -0.5}
{"smiles": "O=c1[nH]nc(-c2ccccc2-c2ccccc2)[nH]1", "% Inhibition": 3, "Z score": -0.53}
{"smiles": "CC(=O)N[C@H]1[C@H](c2ccccc2)N(Cc2ccc(S(C)(=O)=O)cc2)CC[C@@]1(C)O", "% Inhibition": 11, "Z score": -1.7}
{"smiles": "COc1cc(=O)c(C(=O)N2CCC(C(N)=O)CC2)nn1-c1ccc(F)c(F)c1", "% Inhibition": 38, "Z score": -1.31}
{"smiles": "O=C(c1nnc2n1CCCC2)N1CCN(Cc2ccc3c(c2)OCO3)CC1", "% Inhibition": -11, "Z score": 1.8}
{"smiles": "O=C(C[C@H]1CCCO1)N1Cc2cnnn2Cc2ccccc21", "% Inhibition": -13, "Z score": 1.68}
{"smiles": "CC(C)c1nncn1CCNC(=O)c1ccc(Cl)cn1", "% Inhibition": -1, "Z score": 0.17}
{"smiles": "CC(C)c1cc(N2CCC[C@H](N(C)C)CC2)nc(C(F)(F)F)n1", "% Inhibition": -15, "Z score": 1.48}
{"smiles": "C=C(C)CN(CC)C(=O)c1cccc(-c2c[nH]c(C(=O)N3CCOCC3)c2)c1", "% Inhibition": 13, "Z score": -2.35}
{"smiles": "COc1c(C)cc(C(=O)N2CCc3onc(-c4ccccc4)c3C2)cc1C", "% Inhibition": -4, "Z score": 0.61}
{"smiles": "C[C@@H](Cn1cncn1)Nc1nnc(-c2ccccc2)s1", "% Inhibition": -4, "Z score": 0.45}
{"smiles": "COc1ccccc1NC(=O)c1oc2ccccc2c1NC(=O)c1cccc2ccccc12", "% Inhibition": -8, "Z score": 1.45}
{"smiles": "Cc1ccc(C)c(N2CCN(S(=O)(=O)c3c(C(=O)N4CCCC4)c(C)n(C)c3C)CC2)c1", "% Inhibition": -4, "Z score": 0.76}
{"smiles": "COc1ccc(-c2noc(C3CCC4(CC3)NC(=O)NC4=O)n2)cc1OC", "note": "(centres undefined)", "% Inhibition": -4, "Z score": 0.64}
{"smiles": "Cc1c(CC(=O)NCCCN)c2c(n1Cc1ccc(F)cc1)CCCC2=O", "% Inhibition": 0, "Z score": 0.09}
{"smiles": "CC(c1ccccc1)C1CCCCCN1Cc1nc(C(=O)O)co1", "note": "(centres undefined)", "% Inhibition": -8, "Z score": 1.43}
{"smiles": "COc1ccc(S(=O)(=O)NC[C@H]2CCC[C@@H]2O)cn1", "% Inhibition": -13, "Z score": 1.78}
{"smiles": "CC(=O)N1CCN(C(=O)NC2CCCCCC2)CCC12CCOCC2", "% Inhibition": 6, "Z score": -0.87}
{"smiles": "c1ccc(-c2nc3nc(-c4ccc(-c5cn6nc(-c7ccccc7)c(-c7ccccc7)nc6n5)cc4)cn3nc2-c2ccccc2)cc1", "% Inhibition": -8, "Z score": 1.07}
{"smiles": "O=C(O)[C@@H]1CCC[C@@H]1NCc1cn(Cc2ccccc2)c2ccccc12", "% Inhibition": 6, "Z score": -0.85}
{"smiles": "Cc1n[nH]c(N2CCN(S(=O)(=O)C3CCC(F)(F)CC3)CC2)n1", "% Inhibition": -2, "Z score": 0.36}
{"smiles": "CC[C@@H](C(=O)OC(C)(C)C)N1CCS(=O)(=O)C(C)(C)C1", "% Inhibition": 0, "Z score": 0.07}
{"smiles": "CC(C)n1cnnc1CN1CCc2nocc2C1", "% Inhibition": -1, "Z score": 0.16}
{"smiles": "Cc1ccc(C(N)=O)c(NC(=O)c2ccoc2C2CC2)c1", "% Inhibition": 6, "Z score": -1.14}
{"smiles": "Cc1ccc2nc(-c3ccc(F)cc3)c(CN3CCNC(=O)CC3)cc2c1", "% Inhibition": -3, "Z score": 0.41}
{"smiles": "Cc1c(C(=O)NCc2n[nH]c3c2CCCCC3)ccn1C", "% Inhibition": -12, "Z score": 1.59}
{"smiles": "O=C(NCC#CCOc1ccc2c(c1)OCO2)c1cnccn1", "% Inhibition": 2, "Z score": -0.28}
{"smiles": "CC(C)C1N(C(=O)NC2CCC(=O)NC2C2CCCO2)CC12CC=CC2", "note": "(centres undefined)", "% Inhibition": -6, "Z score": 1.16}
{"smiles": "CCN(CC)CCNC(=O)N(C)Cc1noc(C2CCCC2)n1", "% Inhibition": 4, "Z score": -0.53}
{"smiles": "Cc1ccc(C2CCN(C(=O)c3cnn4c3CCC4)CC2)cn1", "% Inhibition": -9, "Z score": 1.43}
{"smiles": "COCCNc1ccccc1CNC(=O)c1nc2cccnc2s1", "% Inhibition": -3, "Z score": 0.28}
{"smiles": "C[C@H](NC(=O)c1ccnnc1)C1=CCCCC1", "% Inhibition": 3, "Z score": -0.49}
{"smiles": "CC(C)C[C@H](NC(=O)CCC1CCCCC1)C(N)=O", "% Inhibition": -4, "Z score": 0.46}
{"smiles": "CN(CCCOc1cccc(Cl)c1)C(=O)CCn1cnc2ccccc2c1=O", "% Inhibition": -6, "Z score": 1.13}
{"smiles": "COCC(=O)N1CCN(C(=O)c2ccc(N(C)C)cc2)C[C@H]1C(=O)N[C@@H](CC1CCCCC1)C(N)=O", "% Inhibition": -3, "Z score": 0.49}
{"smiles": "CC(=O)N1CCCC[C@H]1C(=O)Nc1cc(-c2ccncc2)ccc1C", "% Inhibition": -7, "Z score": 1.31}
{"smiles": "CCCc1cc(C(=O)N[C@H]2CC[C@H](n3cnnc3)CC2)ccn1", "% Inhibition": -3, "Z score": 0.26}
{"smiles": "CCCn1nc(-n2cnnc2)c(NS(=O)(=O)c2ccc(Br)cc2)c1C", "% Inhibition": 38, "Z score": -5.17}
{"smiles": "OC[C@H](CC(F)(F)F)Nc1ccc(Br)cn1", "% Inhibition": 2, "Z score": -0.36}
{"smiles": "COCc1ncc(CN2CCC3(CC2)CN(CCC(C)C)C(=O)O3)cn1", "% Inhibition": -5, "Z score": 0.87}
{"smiles": "CCCN(Cc1ccc(-n2cccn2)cc1)[C@H]1CCS(=O)(=O)C1", "% Inhibition": -4, "Z score": 0.6}
{"smiles": "COc1cc(OC)cc(C(=O)N[C@@H](C)c2nnc3n2CCCCC3)c1", "Z score": 1.34}
{"smiles": "CN(Cc1nnnn1C)C1(C(N)=O)CCCC1", "% Inhibition": -18, "Z score": 2.2}
{"smiles": "CCCc1nnc(N2C[C@@H](CN3CCCCCC3)[C@@H](CO)C2)s1", "% Inhibition": -8, "Z score": 1.49}
{"smiles": "CCS(=O)(=O)NC[C@](C)(OC)c1cccc(Cl)c1", "% Inhibition": 15, "Z score": -1.87}
{"smiles": "Cc1cc(S(=O)(=O)N2CCC(c3cc[nH]n3)CC2)c(C)s1", "% Inhibition": -4, "Z score": 0.58}
{"smiles": "Cc1[nH]c2ccccc2c1C(=O)N1CC[C@H](c2ncccn2)C1", "% Inhibition": 3, "Z score": -0.5}
{"smiles": "CC(=O)NCC1CCN(c2ccc3cc(Cl)cnc3n2)CC1", "% Inhibition": 2, "Z score": -0.46}
{"smiles": "Cc1ccc(NC(=O)C(=O)N2CCCN(C)C3(CCN(C)CC3)C2)c(C)c1", "% Inhibition": -11, "Z score": 1.4}
